Source: a collection of fitness landscapes (doi:10.1016/j.celrep.2020.107928)
Over roughly 81,000 sequences, “one-hybrid fitness for binding NBS DNA” has its median near -0.1; the highest 2% begin near 0.36. The list shows a part of the results.

B1: Caulobacter ParB omega fusion; a variant is named by its letters at X, in order, B8GW30 (parent)
chain: MESVVVGEPGMSEGRRGLGRGLSALLGEVDAAPAQAPGEQLGGSREAPIEILQRNPDQPRRTFREEDLEDLSNSIREKGVLQPILVRPSPDTAGEYQIVAGERAWRAAQRAGLKTVPIMVRELDDLAVLEIGIIENVQRADLNVLEEALSYKVLMEKFERTQENIAQTIGKSXSHVANXMRLLXLPDEVQSYLVSGELTAXHARAIAAAADPVALAKQIIEGGLSVRETEALARKAPNLSAGKSKGGRPPRVKDTDTQALESDLSSVLGLDVSIDHRGSTGTLTITYATLEQLDDLCNRLTRGI

Variants of: B1
Experiment: one-hybrid fitness for binding NBS DNA (the Noc-binding site; scaled: cognate 1, non-cognate 0); higher = stronger binding
Conditions: with NBS DNA site
Method in brief: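 The reporter was HIS3, with the binding site 19 bp from the promoter, in E. coli USO used for bacterial one-hybrid selection of Caulobacter ParB libraries with four specificity codons randomised. Growth was on M9 lacking histidine, with 0.1 mM IPTG and 5 mM 3-AT, for 48 hours at 37°C. Illumina sequencing covered plasmids before and after selection; three replicate libraries were pooled and variants with under 10 reads dropped. A fitness score is the log change in variant-to-wild-type read ratio, rescaled to the cognate and non-cognate references.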

Variant | one-hybrid fitness for binding NBS DNA
RAKN | ≤ 0.2
CITG | ≤ 0.2
KFTM | ≤ 0.2
PRKF | ≤ 0.2
VSNL | ≤ 0.2
KRDT | 0.421
QCTL | ≤ 0.2
KVHR | ≤ 0.2
LNIR | ≤ 0.2
QLWT | 0.308
NAVF | ≤ 0.2
SQLN | ≤ 0.2
DMRG | ≤ 0.2
LTWS | ≤ 0.2
MHYH | ≤ 0.2
STPS | ≤ 0.2
PRKY | ≤ 0.2
QIAM | ≤ 0.2
LSMV | ≤ 0.2
FPYI | ≤ 0.2
QWGR | 0.249
VINS | ≤ 0.2
VADS | ≤ 0.2
EAEP | ≤ 0.2

Variant | one-hybrid fitness for binding NBS DNA
LRDM | ≤ 0.2
TSEN | ≤ 0.2
DVMA | ≤ 0.2
HEPG | ≤ 0.2
VCVG | ≤ 0.2
NLIA | ≤ 0.2
SNSS | ≤ 0.2
HSIL | ≤ 0.2
ESLF | ≤ 0.2
QSQI | ≤ 0.2
VVLR | ≤ 0.2
RWLM | ≤ 0.2
TSRE | ≤ 0.2
VQPS | ≤ 0.2
HEHN | ≤ 0.2
VRRH | 0.22
KPVQ | 0.284
LVVH | ≤ 0.2
PHIG | ≤ 0.2
DPLT | ≤ 0.2
VAAN | ≤ 0.2
RTPE | ≤ 0.2
SGIC | ≤ 0.2
SATF | ≤ 0.2

Variant | one-hybrid fitness for binding NBS DNA
TTPN | ≤ 0.2
PWGG | ≤ 0.2
CNYC | ≤ 0.2
VPHC | ≤ 0.2
AEAG | ≤ 0.2
QKDH | 0.521
PIAG | ≤ 0.2
TQCR | ≤ 0.2
SYFS | ≤ 0.2
DGSY | ≤ 0.2
LGRA | ≤ 0.2
LVHA | ≤ 0.2
HPTF | ≤ 0.2
SWPW | ≤ 0.2
DGRS | ≤ 0.2
HGKR | ≤ 0.2
CNFD | ≤ 0.2
PQQA | ≤ 0.2
DQRT | ≤ 0.2
MSQR | ≤ 0.2
MHSG | ≤ 0.2
LNNM | ≤ 0.2
IYQS | ≤ 0.2
SCSA | ≤ 0.2

Variant | one-hybrid fitness for binding NBS DNA
FAHR | ≤ 0.2
KEGS | ≤ 0.2
QQFS | 0.284
KIYN | ≤ 0.2
GNQH | ≤ 0.2
TVKC | ≤ 0.2
EGHG | ≤ 0.2
FTCG | ≤ 0.2
QLPE | ≤ 0.2
QGFF | ≤ 0.2
TLPQ | ≤ 0.2
TMLY | ≤ 0.2
ATWR | ≤ 0.2
PCKC | ≤ 0.2
PHAV | ≤ 0.2
HIRY | ≤ 0.2
TRHS | ≤ 0.2
RACS | 0.34
LHNR | ≤ 0.2
CKFF | ≤ 0.2
GAMN | ≤ 0.2
GVPD | ≤ 0.2
RIHH | ≤ 0.2
RHKL | ≤ 0.2

Variant | one-hybrid fitness for binding NBS DNA
NYES | ≤ 0.2
GSET | ≤ 0.2
YRSL | ≤ 0.2
TSFK | ≤ 0.2
HATG | ≤ 0.2
FMSK | ≤ 0.2
CRGA | ≤ 0.2
IRPN | ≤ 0.2
PDLT | ≤ 0.2
ELVL | ≤ 0.2
GKPI | ≤ 0.2
PWHI | ≤ 0.2
FLFR | ≤ 0.2
TVML | ≤ 0.2
LLES | ≤ 0.2
RFVY | ≤ 0.2
AMAC | ≤ 0.2
MSMC | ≤ 0.2
KQCC | ≤ 0.2
VYWM | ≤ 0.2
ADGC | ≤ 0.2
YVGT | ≤ 0.2
KHGV | ≤ 0.2
EAPG | ≤ 0.2

Variant | one-hybrid fitness for binding NBS DNA
HVAA | ≤ 0.2
RKVH | 0.211
PLQY | ≤ 0.2
QKLF | ≤ 0.2
RRMY | 0.338
MQIC | ≤ 0.2
EPYD | ≤ 0.2
LLLI | ≤ 0.2
HTKT | ≤ 0.2
QTQK | 0.216
PPDS | ≤ 0.2
CRAC | ≤ 0.2
KSSW | ≤ 0.2
AIVW | ≤ 0.2
SFPK | ≤ 0.2
DAGD | ≤ 0.2
PAWQ | ≤ 0.2
EGRA | ≤ 0.2
RWEG | ≤ 0.2
REQV | ≤ 0.2
SMHS | ≤ 0.2
KYIF | ≤ 0.2
IQNW | ≤ 0.2
LKVF | ≤ 0.2

Variant | one-hybrid fitness for binding NBS DNA
HAIR | ≤ 0.2
CCNT | ≤ 0.2
RMRD | ≤ 0.2
QAWT | 0.297
DSRM | ≤ 0.2
SDHH | ≤ 0.2
GGVT | ≤ 0.2
FIIR | ≤ 0.2
VPAW | ≤ 0.2
SNQT | ≤ 0.2
NDPG | ≤ 0.2
HICA | ≤ 0.2
LPDM | ≤ 0.2
TVHT | ≤ 0.2
YYSE | ≤ 0.2
CHTP | ≤ 0.2
WPMC | ≤ 0.2
SGDY | ≤ 0.2
WDAT | ≤ 0.2
LTHT | ≤ 0.2
LCAL | ≤ 0.2
PNNK | ≤ 0.2
EQKT | ≤ 0.2
VVYY | ≤ 0.2

Variant | one-hybrid fitness for binding NBS DNA
ADLI | ≤ 0.2
SIPC | ≤ 0.2
QMNM | ≤ 0.2
PAFY | ≤ 0.2
AHGC | ≤ 0.2
NNQS | ≤ 0.2
GYRR | ≤ 0.2
LNRT | ≤ 0.2
WPCR | ≤ 0.2
NLQT | ≤ 0.2
RRAE | ≤ 0.2
RLRG | ≤ 0.2
QDNR | 0.203
ITYL | ≤ 0.2
SPRP | ≤ 0.2
LEAA | ≤ 0.2
YDSC | ≤ 0.2
RFRV | ≤ 0.2
FACW | ≤ 0.2
MTGR | ≤ 0.2
CLNT | ≤ 0.2
RPIL | ≤ 0.2
NGPL | ≤ 0.2
RDRY | ≤ 0.2

Variant | one-hybrid fitness for binding NBS DNA
AKPM | ≤ 0.2
IATK | ≤ 0.2
QIRW | ≤ 0.2
RCRL | ≤ 0.2
RSCV | ≤ 0.2
EMMS | ≤ 0.2
HKMC | ≤ 0.2
WRKY | ≤ 0.2
DSKG | ≤ 0.2
MVAR | ≤ 0.2
EYQT | ≤ 0.2
VMSG | ≤ 0.2
EGMA | ≤ 0.2
FIIS | ≤ 0.2
QATY | ≤ 0.2
ESPP | ≤ 0.2
WWKT | ≤ 0.2
RNKE | ≤ 0.2
RQKF | ≤ 0.2
RYFR | 0.241
RQQP | ≤ 0.2
RTRS | 0.651
IRVM | ≤ 0.2
RWRM | ≤ 0.2

Variant | one-hybrid fitness for binding NBS DNA
PKTD | ≤ 0.2
EVNR | ≤ 0.2
QQIA | ≤ 0.2
QLEN | ≤ 0.2
RWTT | ≤ 0.2
VPRD | ≤ 0.2
CSRG | ≤ 0.2
NCAL | ≤ 0.2
FIPT | ≤ 0.2
WSPV | ≤ 0.2
PQYC | ≤ 0.2
QRWD | ≤ 0.2
MNAR | ≤ 0.2
NHKA | ≤ 0.2
QDTL | ≤ 0.2
DMGG | ≤ 0.2
CCPH | ≤ 0.2
YNKG | ≤ 0.2
RIMT | 0.283
IVVG | ≤ 0.2
AQRP | ≤ 0.2
CGDK | ≤ 0.2
VWAS | ≤ 0.2
WKDY | ≤ 0.2

Variant | one-hybrid fitness for binding NBS DNA
ESFE | ≤ 0.2
CLLM | ≤ 0.2
LLQQ | ≤ 0.2
FPCT | ≤ 0.2
WNDG | ≤ 0.2
VYCN | ≤ 0.2
RMPA | ≤ 0.2
NWMT | ≤ 0.2
DFSL | ≤ 0.2
RVTN | ≤ 0.2
PALI | ≤ 0.2
YQMS | ≤ 0.2
VIPM | ≤ 0.2
KPKY | ≤ 0.2
NEMR | ≤ 0.2
RVQK | ≤ 0.2
DQVS | ≤ 0.2
SWRW | ≤ 0.2
LHSA | ≤ 0.2
AYAE | ≤ 0.2
RFMI | ≤ 0.2
CRPG | ≤ 0.2
NYLI | ≤ 0.2
QHPA | ≤ 0.2

Variant | one-hybrid fitness for binding NBS DNA
SNIR | ≤ 0.2
RWPD | ≤ 0.2
QFIA | ≤ 0.2
RKRE | ≤ 0.2
IKLD | ≤ 0.2
LAYY | ≤ 0.2
PCAG | ≤ 0.2
LYHY | ≤ 0.2
NKRR | 0.235
RAEW | ≤ 0.2
SDSY | ≤ 0.2
WREC | ≤ 0.2
CYAS | ≤ 0.2
IHHS | ≤ 0.2
IMPL | ≤ 0.2
HEWT | ≤ 0.2
APQE | ≤ 0.2
ERGC | ≤ 0.2
CGNV | ≤ 0.2
QLTE | ≤ 0.2
LQTI | ≤ 0.2
CHES | ≤ 0.2
RQIG | ≤ 0.2
MYVG | ≤ 0.2

Variant | one-hybrid fitness for binding NBS DNA
TRQA | ≤ 0.2
KAFT | ≤ 0.2
LVNE | ≤ 0.2
QAWF | ≤ 0.2
DNCR | ≤ 0.2
RGNI | ≤ 0.2
GWAR | ≤ 0.2
TCVM | ≤ 0.2
WHNL | ≤ 0.2
YPFG | ≤ 0.2
GQVS | ≤ 0.2
QDQG | ≤ 0.2
RNTS | 0.3
TQQW | ≤ 0.2
PNQS | ≤ 0.2
TPTY | ≤ 0.2
TCMC | ≤ 0.2
VSQG | ≤ 0.2
